Data from PubChem BioAssay AID743279 (National Center for Advancing Translational Sciences (NCATS), 2014).
Out of some 360,000 compounds screened, about 17,000 (4.7%) were called active. The inconclusive results got no clear call from the source; some entries with a clear call stand among them for comparison. Rule as the data show it: active = activity change below about -50%; inconclusive = mostly about -30% to -49%; inactive = weaker than that.

Assay: qHTS for Inhibitors of Inflammasome Signaling: IL-1-beta AlphaLISA Primary Screen
Conditions: THP-1 LPS/ATP IL-1B secretion, 16 h; at 57.5 µM, stronger effect = lower value
In short: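 THP-1 cells pretreated 1 hr with compounds (up to 57.5 uM final), then stimulated with LPS (250 ng/mL final) plus ATP (1.25 mM final); secreted IL-1B measured by AlphaLISA after 16 hr, decreased signal indicating inhibition.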
% is scaled to controls: 0 for no effect and ±100 for the full control effect.

Row | SMILES | activity change
1 | Cc1cc(C)c(C)c(S(=O)(=O)NCc2ccncc2)c1C | inactive: -3.71%
2 | CC(C)C1NC(=S)N(C2CCCCC2)C1=O (centres undefined) | inactive: 18.2%
3 | Brc1ccc(CNc2nc3ccccc3n2CCN2CCCCC2)cc1 | inconclusive: -36%
4 | COc1ccc(C2C(C(C)=O)=C(C)N=c3s/c(=C\c4ccc5c(c4)OCO5)c(=O)n32)c(OC)c1 (centres undefined) | inconclusive: -32.8%
5 | CC(=O)c1cc2c(cc1NC(=O)c1ccc(-n3nc(C)cc3C)cc1)OCO2 | inconclusive: -42.4%
6 | O=C(CCCn1c(=O)[nH]c2ccsc2c1=O)N1CCN(Cc2ccc3c(c2)OCO3)CC1 | inconclusive: -41%
7 | CC(=O)c1c(C)[nH]c(C(=O)Nc2cccc(S(=O)(=O)N3CCCCC3)c2)c1C | inconclusive: -36.3%
8 | O=C(N/N=C/c1cn(-c2ccccc2)nc1-c1cc2ccccc2o1)c1cccnc1 | active: -222%
9 | Cc1cc(CNC(=O)COc2ccc(F)cc2Cl)cc(C)c1O | active: -88.4%
10 | CC1=C(C(=O)OC2CCCCC2)C(c2ccc(N(C)C)cc2)NC(=O)N1 (centres undefined) | inconclusive: -43.4%
11 | CCc1ccc(NC(=O)C2CCN(S(=O)(=O)c3ccc4c(c3)NC(=O)CO4)CC2)cc1 | inconclusive: -30.5%
12 | CCN(CC1CCCN(CCc2cccc(F)c2)C1)C(=O)c1cc(C)oc1C (centres undefined) | inconclusive: -41.1%
13 | Cc1cc(C(=O)CSc2nc3ccccc3o2)c(C)n1C1CC1 | inconclusive: -36.6%
14 | Cc1cc(NC(=O)CSc2nnc3c4c(C)c(C)sc4ncn23)no1 | inactive: 54.1%
15 | Nc1cc(Cl)ccc1C(=O)OCC(=O)N1CCCCCC1 | inconclusive: -36.7%
16 | CC(C)c1ccccc1OCC(=O)Nc1cc(S(=O)(=O)N2CCOCC2)ccc1N1CCCC1 | active: -55.6%
17 | CN1C(=O)C(O)(CC(=O)/C=C\c2ccc3c(c2)OCO3)c2ccccc21 (centres undefined) | active: -101%
18 | Clc1ccc(-c2ccnc(Oc3ccc4ccccc4c3)n2)cc1 | inactive: 2.05%
19 | C[C@H](NC(=O)c1nc[nH]c1C(=O)N[C@@H](Cc1ccccc1)C(=O)OC(C)(C)C)c1ccccc1 | inconclusive: -33.8%
20 | CCOC(=O)N1CCN(C(=S)Nc2ccc3nc(N4CCN(CC)CC4)cc(C)c3c2)CC1 | inconclusive: -33.9%
21 | COc1ccc(NC(=O)CN2C(=O)COc3ccc(S(=O)(=O)N4CCCCC4)cc32)c(OC)c1 | active: -54%

Row | SMILES | activity change
22 | CCOc1ccc(CCNC(=O)c2nn(C)c3c2CS(=O)(=O)c2ccccc2-3)cc1OCC | inconclusive: -34.4%
23 | CC(C)n1c(-c2ccc(C(C)(C)C)cc2)n[nH]c1=S | inactive: -16.9%
24 | CN(CC(=O)Nc1ccc(OC(F)F)cc1)S(=O)(=O)/C=C/c1ccccc1 | inconclusive: -36.3%
25 | CCc1nc2ccc(C(=O)NCCCN(C)C)cn2c1N(C)Cc1ccc(OC)cc1 | inconclusive: -46.8%
26 | CC(C)C(=O)Nc1ccc(C(=O)CSc2nnc(C3CC3)n2C2CC2)cc1 | inactive: 0%
27 | COc1ccc(CCn2c(C)cc3c(c2=O)C(c2ccc4c(c2)OCO4)C(C#N)=C(N)O3)cc1OC (centres undefined) | inconclusive: -44%
28 | CSCCC(C(=O)Nc1c(C)cccc1C)N1CCC(Cc2ccccc2)CC1 (centres undefined) | inactive: -24.9%
29 | COc1ccc(C(c2nnnn2-c2ccc3c(c2)OCCO3)N2CCN(C/C=C/c3ccccc3)CC2)cc1 (centres undefined) | inconclusive: -47.2%
30 | Cn1c2ccccc2c(=O)c2ccc(C#CC3(O)CCCCC3)cc21 | active: -53.8%
31 | O=[N+]([O-])c1ccc(COc2cccc(CNc3ccc(F)cc3)c2)cc1 | inconclusive: -31%
32 | Cc1cc(Cl)ccc1OCC(=O)N[C@@H](Cc1ccccc1)c1nc2ccccc2[nH]1 | inactive: 15.7%
33 | O=C(Cn1cc(C(=O)c2cccs2)c2ccccc21)NCc1ccc2c(c1)OCO2 | inconclusive: -37.2%
34 | O=C(COC(=O)CCOc1ccccc1)Nc1ncc(Cl)cc1Cl | inactive: 10.4%
35 | O=[N+]([O-])c1ccccc1-c1ccc(C(=S)N2CCCC2)o1 | inactive: 1.34%
36 | CC[C@]12c3[nH]c4cc(CCC(=O)N(C)C)ccc4c3CCN1C(=O)[C@@H](CC(=O)NCc1ccco1)C[C@@H]2C(=O)N1CCN(C(=O)C2CC2)CC1 | inactive: -2.72%
37 | O=C1NC(=S)SC1=Cc1cc(Br)ccc1O | inconclusive: -42.6%
38 | CN(C(=O)CCn1c(=S)oc2ccccc21)C1CCCCC1 | inconclusive: -34.6%
39 | COc1ccc(C(=O)Nc2ccc(C(=O)c3ccccc3)cc2)cc1 | inactive: 31.6%
40 | COc1ccccc1CNC(=O)c1ccccc1OC | inconclusive: -32.8%
41 | CCN(CC)CCN(C(=O)c1ccc(C(=O)c2ccccc2)cc1)c1nc2ccc(OC)cc2s1 | inconclusive: -43.3%
42 | O=C1c2ccc(Cl)cc2S(=O)(=O)c2cccc(C(=O)N3CCN(c4ncc(Br)cn4)CC3)c21 | inconclusive: -45.4%

Row | SMILES | activity change
43 | O=C(CCNc1ccc(F)cc1)c1cc2ccccc2o1 | inconclusive: -40.4%
44 | CCCCNC(=O)C1(C)CCC(=O)N1CCOC (centres undefined) | inactive: -3.88%
45 | S=C(NCc1ccco1)N1CCN(Cc2ccc(Cl)cc2Cl)CC1 | inconclusive: -41.4%
46 | CCOC(=O)c1ccc(NC(=O)COc2ccc(CNCCO)cc2OCC)cc1 | active: -102%
47 | O=c1cc(CN2CCN(c3ccccc3F)CC2)c2cc3c(cc2o1)CCCC3 | inactive: -0.186%
48 | CCCN(CC(=O)Nc1cccc(Br)c1)CC(=O)Nc1ccc(F)c(F)c1F | active: -92.3%
49 | COc1ccc(/C=C2/SC(=S)N(CCCC(=O)Nc3cccc(O)c3)C2=O)cc1 | active: -78.9%
50 | COc1cc(OC)cc(C(=O)Nc2ccccc2-c2nnn(CC(=O)Nc3cc(C)on3)n2)c1 | inactive: 34.9%
51 | O=C(c1ccc(-c2ccccc2Cl)s1)N1CCOCC1 | inconclusive: -39.4%
52 | COc1cccc(NC(=O)CN(C)C(=O)CCN2C(=O)C3CC=CCC3C2=O)c1 (centres undefined) | inactive: 11%
53 | O=C1c2ccc([N+](=O)[O-])cc2S(=O)(=O)N1Cc1ccccc1 | active: -94.4%
54 | O=C(c1cccc(Cl)c1)N1CCC(=O)N([C@H](COCc2cccc(Cl)c2)Cc2ccccc2)CC1 | inconclusive: -44.9%
55 | Oc1ccc(/C=N/Nc2cc(N3CCOCC3)nc(N3CCOCC3)n2)cc1 | inconclusive: -42.5%
56 | COc1ccc(S(=O)(=O)NCC2CCCN(Cc3ccccc3C)C2)cc1 (centres undefined) | inconclusive: -39.5%
57 | COc1ccc(S(=O)(=O)N2CCC(O)(c3ccc(Cl)cc3)CC2)cc1 | inconclusive: -32.4%
58 | CCCCOc1ccc(-c2ncc(C(=O)OCC)c(N)n2)cc1 | inconclusive: -42.6%
59 | O=S(=O)(c1cccs1)N1CCN(CC(O)COC2CCCc3ccccc32)CC1 (centres undefined) | inactive: -2.16%
60 | Cc1ccc(NC(=O)CN(C)C(=O)C(Sc2ccccc2)c2ccccc2)cc1 (centres undefined) | inconclusive: -30.8%
61 | Nc1nccc(NCCSCc2ccccc2)n1 | active: -63.9%
62 | CCCCCCCC(=O)N/N=C/c1ccc([N+](=O)[O-])o1 | inactive: 13.5%
63 | Cc1cc2ccccc2n1CCNC(=O)COc1ccc2ccccc2c1 | inconclusive: -32.7%

Row | SMILES | activity change
64 | Cc1ccc(C2=NN(C(=O)c3cccs3)C(c3ccccc3O)C2)cc1 (centres undefined) | inactive: -26.4%
65 | O=C1[C@H](Cc2ccccc2)NCCCC[C@H](c2ccc(Cl)cc2)N1Cc1ccc(Cl)cc1 | inconclusive: -42.4%
66 | COc1ccc([N+](=O)[O-])cc1N(CC(=O)NCCSc1ccc(C)cc1)S(C)(=O)=O | inconclusive: -39.2%
67 | CCS(=O)(=O)Nc1ccc(C2=NN(C(C)=O)C(c3cccs3)C2)cc1 (centres undefined) | inconclusive: -45.3%
68 | Cc1cc(C(=O)Nc2c(C)n(C)n(-c3ccccc3)c2=O)on1 | inactive: 1.41%
69 | COc1ccccc1NC(=S)N/N=C1\CC(C)(C)Oc2ccc(O)cc21 | inconclusive: -41.6%
70 | CN1OC[C@@H]2CN(Cc3ccccc3)[C@H](c3cccc(-c4ccc(C#N)cc4)c3)C[C@@H]21 | inconclusive: -40.1%
71 | COc1cc(OC)c(OC)cc1CN(C)CC1CCCN(CCc2ccccc2F)C1 (centres undefined) | inconclusive: -38.8%
72 | O=C(COC(=O)c1ccccc1O)Nc1ccc(N2CCOCC2)cc1 | inconclusive: -46.1%
73 | CCC(=O)c1ccc(Oc2ccc(C(=O)c3ccc(C)cc3)cc2[N+](=O)[O-])cc1 | active: -80.4%
74 | C[C@H](NS(=O)(=O)c1ccccc1F)C(=O)OCC(=O)Nc1ccc2c(c1)OCCO2 | inconclusive: -38%
75 | CCOC(=O)c1cnc(SCc2nc(N)nc(Nc3ccc(C)cc3)n2)nc1N | active: -52%
76 | CCOC(=O)c1c(C)[nH]c(C(=O)OCC(=O)N2c3ccccc3CC2C)c1C (centres undefined) | inconclusive: -30.8%
77 | CN(C)c1ccc(NC(=O)c2cn(-c3ccccc3)nc2-c2cccs2)cc1 | inconclusive: -31.8%
78 | CC1CCN(c2oc(-c3ccccc3Cl)nc2C#N)CC1 | active: -52.1%
79 | CC(C)[C@@H](CO)NC(=O)[C@H]1O[C@@H](n2cnc3c(N)ncnc32)[C@H](O)[C@@H]1O | inactive: -7.44%
80 | Cc1c(OC(C)C(=O)N[C@@H](Cc2ccccc2)C(=O)O)ccc2c3c(c(=O)oc12)CCCC3 (some centres undefined) | inactive: 11.6%
81 | CC(=O)c1ccc(Nc2nc(C(N)c3ccccc3)cs2)cc1 (centres undefined) | inconclusive: -32.5%
82 | Cc1ccc(CSCCNC(=O)CN(c2cc(C)ccc2C)S(C)(=O)=O)cc1 | inconclusive: -30.4%
83 | CC(Cc1ccc(Cl)cc1)N1CCC(n2nccc2NC(=O)C2CCCC2)CC1 (centres undefined) | inconclusive: -44.8%
84 | CC1=C(C#N)C(c2ccoc2)C(C(=O)OCc2ccccc2)=C(N)S1 (centres undefined) | inactive: -12.9%
